# The whole screen tested about 360,000 compounds, of which about 7,500 (2.1%) were called active. The shares of active, inactive and inconclusive entries below differ from those in the screen. Calls follow the shape of the dose curve; as a rule, active = well fitted cell-killing curve with a large enough effect; inconclusive = small, poorly fitted or top-dose-only effect, or effect the other way, or another doubt; inactive = no such curve, though single readings can be large or run the other way. No potency is given beside an inconclusive call; the fits are too rough.
# Experiment: qHTS for induction of synthetic lethality in tumor cells producing 2HG: qHTS for the HT-1080-IDH1KD cell line;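 as to activity, negative = toxicity: 0% = DMSO wells and -100% = cell-free medium wells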
# Conditions: HT-1080 IDH1 knockdown viability, ATP luminescence, 48 h; activity, negative = toxicity: at 46.1 µM (top of the series) unless noted
# How it was run: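 HT-1080-IDH1KD cells (IDH1 knocked down), 750/well in RPMI with 5% FBS, treated with compound 48 h at 37 degrees C. Viability by CellTiter-Glo luminescence, normalised to DMSO and no-cell wells; concentration-response curves classed.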
# Potency is read from the fitted curve at half-maximal effect; tags tell the direction and shape of the fitted curve.
SMILES,Potency,"activity, negative = toxicity"
CN(C)C(=O)O/N=C(\N)COc1ccc(C(C)(C)C)cc1,active: 20.6 µM,
O=C1NCN(c2ccccc2)C12CCN(C(c1cc3ccccc3o1)c1nnnn1Cc1ccccc1)CC2 (stereo unspecified),"inconclusive [cytotoxic, single point]",
C1CC2NCCC3NCCC(N1)N32 (stereo unspecified),,inactive: 0.372%
O=C(c1c[nH]cc1-c1ccccc1)c1cccc2ccccc12,active: 14.6 µM,
O=C(c1cc(C(=O)NCc2ccccc2)c(=O)n(Cc2ccccc2)c1)c1cc(Cl)ccc1O,,inactive: -23.9%
O=C1NCN(c2ccccc2)C12CCN(C(c1ccnc3ccccc13)c1nnnn1-c1ccc3c(c1)OCCO3)CC2 (stereo unspecified),"inconclusive [cytotoxic, single point]",
COc1ccc(/C=N/N=C(/N)N[N+](=O)[O-])c(OC)c1,,inactive: 18.8%
Cc1ccc(-n2c(O)c(C=Nc3ccc(Br)cn3)c(=O)[nH]c2=O)cc1,,inactive: 22.4%
COc1ccc(CCn2c(O)c(C=NCCCO)c(=O)[nH]c2=O)cc1OC,,inactive: 18%
O=c1[nH]c2ccccc2n1C1CCN(C(c2ccccc2)c2nnnn2Cc2ccccc2)CC1 (stereo unspecified),"inconclusive [cytotoxic, single point]",
Cc1cccc(C)c1-n1nnnc1C(c1ccccc1)N1CCC2(CC1)C(=O)NCN2c1ccccc1 (stereo unspecified),"inconclusive [cytotoxic, single point]",
C[C@@H]1O[C@@H](O[C@@H]2C=C3CC[C@@H]4C(CC[C@]5(C)[C@@H](c6ccc(=O)oc6)CC[C@]45O)[C@@]3(C)CC2)[C@H](O)[C@H](O)[C@H]1O (stereo partly specified),active: 0.0046 µM,
CN1CCC(O)(c2cccs2)C(C(=O)c2cccs2)C1 (stereo unspecified),"inconclusive [cytotoxic, single point]",
CCOC(=O)n1c(=O)oc2ccc(Cl)cc21,"inconclusive [cytotoxic, single point]",
CN(C)c1ccc(C(=O)N/N=C/C23CC[C@@H](O)CC2(O)CC[C@@H]2[C@@H]3CCC3(C)C(C4=CC(=O)OC4)CCC23O)cc1 (stereo partly specified),active: 10.3 µM,
COC(=O)C1=C(c2ccc(OC(F)(F)F)cc2)C[C@@H]2CC[C@H]1N2C(=O)NCCOc1ccccc1Cl,,inactive: -14.6%
COCCNC(=O)CN1C(=O)C(C)N=C(c2ccccc2)c2cc(Cl)ccc21 (stereo unspecified),,inactive: -3.58%
Oc1cc(O)cc(/C=C/c2ccc(O)cc2O)c1,"inconclusive [cytotoxic, single point]",
Nc1ncnc2c1ncn2[C@@H]1O[C@H](COP(=O)(O)OP(=O)(O)OP(=O)(O)O)[C@@H](O)[C@H]1O,"inconclusive [cytotoxic, single point]",
COc1ccc(C(c2nnnn2-c2ccc3c(c2)OCCO3)N2CCC(n3c(=O)[nH]c4ccccc43)CC2)cc1 (stereo unspecified),active: 14.6 µM,
CC(=O)c1c(O)c(C)c(O)c(Cc2c(O)c3c(c(C(=O)/C=C/c4ccccc4)c2O)OC(C)(C)C=C3)c1O,"inconclusive [cytotoxic, single point]",
N=c1c2c(n(Cc3ccc(Cl)cc3Cl)c3c1CCC3)CCCC2,active: 14.6 µM,
COc1ccc(CN2Cc3cnnn3-c3ccccc3C2c2ccccc2)cc1 (stereo unspecified),"inconclusive [cytotoxic, partial curve]",

SMILES,Potency,"activity, negative = toxicity"
COC(=O)c1c(C)n(Cc2ccco2)c2ccc(O)cc12,"inconclusive [cytotoxic, single point]",
O=C(O)c1cc2ccccc2oc1=O,"inconclusive [cytotoxic, partial curve]",
COC(=O)C1=C(c2ccc(C(C)=O)cc2)C[C@@H]2CC[C@H]1N2C(=O)NCCCOC(C)C,,inactive: 19%
COC(=O)C1=C(c2ccc(-c3ccccc3)c(F)c2)C[C@@H]2CC[C@H]1N2C(=O)N1CCC(C)CC1,"inconclusive [cytotoxic, single point]",
CC12CC[C@H]3[C@@H](CCC4(O)C[C@H](O)CCC34/C=N/NC(=O)c3ccccc3[N+](=O)[O-])C1(O)CCC2C1=CC(=O)OC1 (stereo partly specified),"inconclusive [cytotoxic, single point]",
CCOC(=O)C1(CCc2ccccc2)CCN(Cc2cccc3c2OCO3)CC1,"inconclusive [cytotoxic, single point]",
CCOC(=O)[C@]12Cc3ccccc3[C@H]1N(C)C(=O)c1cc(OC)ccc12,"inconclusive [cytotoxic, single point]",
CCC(C)OC(=O)c1c(N)n(Cc2cccs2)c2nc3ccccc3nc12 (stereo unspecified),"inconclusive [cytotoxic, single point]",
CC12CCCCC1=[N+]([O-])CN2O (stereo unspecified),,inactive: 20.7%
COc1cccc(OC)c1C1=NCC(=O)Nc2c1oc1ccc(Br)cc21,active: 2.91 µM,
CN(C)C(=O)Oc1ccc(Cl)c2ccccc12,,inactive: -1.05%
NC(Cc1ccc(Cl)cc1)c1csc(Nc2cnccn2)n1 (stereo unspecified),"inconclusive [cytotoxic, partial curve]",
O=C(C1CC1)N1CCC(c2nc(-c3ccc(S(=O)(=O)N4CCCC4)cc3)no2)CC1,"inconclusive [cytotoxic, single point]",
C/C=C(\C)C(=O)N[C@@H](c1ccccc1)[C@@H](O)C(=O)O[C@H]1C[C@@]2(O)[C@@H](OC(=O)c3ccccc3)C3[C@](C)(C(=O)[C@H](OC(C)=O)C(=C1C)C2(C)C)[C@H](O)C[C@H]1OC[C@@]31OC(C)=O (stereo partly specified),active: 0.0052 µM,
CNC(=O)Oc1cc2c(cc1C(C)(C)C)CCC2,,inactive: -22.8%
O=C(O)c1cc[c]([Hg][Cl])cc1,active: 18.4 µM,
COc1ccc2cc1Oc1ccc(cc1)C[C@H]1c3cc(c(OC)cc3CCN1C)Oc1c(OC)c(OC)cc3c1[C@H](C2)N(C)CC3,active: 14.6 µM,
O=c1[nH]c(=O)n(-c2cccc(Cl)c2)c(O)c1C=NCCN1CCCCC1,,inconclusive: 20.4%
CCOC(=O)[C@]12Cc3ccccc3[C@H]1N(C1CCCCC1)C(=O)c1cc(OC)ccc12,active: 3.26 µM,
COc1ccc(N/N=C/c2c(O)n(-c3ccc(C)c(C)c3)c(=O)[nH]c2=O)cc1,"inconclusive [cytotoxic, full curve]",
O=[N+]([O-])c1cc(Cl)c(O)c(-[n+]2c(-c3ccccc3)cc(-c3ccccc3)cc2-c2ccccc2)c1,"inconclusive [cytotoxic, partial curve, poor fit]",
CCOC(=O)[C@]12Cc3cc(OC)ccc3[C@H]1N(C(C)C)C(=O)c1ccccc12,active: 16.4 µM,
COc1ccc(C(=O)N2Cc3cnnn3-c3ccccc3C2C#N)cc1 (stereo unspecified),,inactive: 12%
